Changes are numbered by the printed parent chain; changes in the protein carry UniProt numbers. This is one part of the list.
T1: RBFOX1 RRM (Homo sapiens, UniProt Q9NWB1 109-208)
T1 sequence: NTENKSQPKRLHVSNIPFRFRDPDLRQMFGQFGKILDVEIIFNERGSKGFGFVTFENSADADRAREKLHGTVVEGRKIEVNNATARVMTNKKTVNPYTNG

B1: AGUUGAC (DNA:RNA)
RNA: GGGAGACCGGAAUUCAGAUUGUCCAGUUGACUUAAAUCCCGUCGUAGCCACCA
DNA 1: CAATCTGAATTCCGGTCTCCC
DNA 2: TGGTGGCTACGACGGGATT
B2: CCAAAUA (DNA:RNA)
RNA: GGGAGACCGGAAUUCAGAUUGUCCCCAAAUAUUAAAUCCCGUCGUAGCCACCA
DNA 1: CAATCTGAATTCCGGTCTCCC
DNA 2: TGGTGGCTACGACGGGATT
B3: CGCUGGA (DNA:RNA)
RNA: B1 RNA with A25C, U27C, A30G, C31A
DNA 1: CAATCTGAATTCCGGTCTCCC
DNA 2: TGGTGGCTACGACGGGATT
B4: GGACUGA (DNA:RNA)
RNA: B2 RNA with C25G, C26G, A28C, A29U, U30G
DNA 1: CAATCTGAATTCCGGTCTCCC
DNA 2: TGGTGGCTACGACGGGATT
B5: GUUCCAA (DNA:RNA)
RNA: B1 RNA with A25G, G26U, U28C, G29C, C31A
DNA 1: CAATCTGAATTCCGGTCTCCC
DNA 2: TGGTGGCTACGACGGGATT
B6: UGAGGAC (DNA:RNA)
RNA: B1 RNA with A25U, U27A, U28G
DNA 1: CAATCTGAATTCCGGTCTCCC
DNA 2: TGGTGGCTACGACGGGATT
B7: CCACCGA (DNA:RNA)
RNA: B2 RNA with A28C, A29C, U30G
DNA 1: CAATCTGAATTCCGGTCTCCC
DNA 2: TGGTGGCTACGACGGGATT
B8: GUAACUG (DNA:RNA)
RNA: B2 RNA with C25G, C26U, A29C, A31G
DNA 1: CAATCTGAATTCCGGTCTCCC
DNA 2: TGGTGGCTACGACGGGATT
B9: UACCCUU (DNA:RNA)
RNA: B2 RNA with C25U, C26A, A27C, A28C, A29C, A31U
DNA 1: CAATCTGAATTCCGGTCTCCC
DNA 2: TGGTGGCTACGACGGGATT
B10: CUUUAUA (DNA:RNA)
RNA: B2 RNA with C26U, A27U, A28U
DNA 1: CAATCTGAATTCCGGTCTCCC
DNA 2: TGGTGGCTACGACGGGATT
B11: GCCUACC (DNA:RNA)
RNA: B1 RNA with A25G, G26C, U27C, G29A, A30C
DNA 1: CAATCTGAATTCCGGTCTCCC
DNA 2: TGGTGGCTACGACGGGATT
B12: GGGCGUG (DNA:RNA)
RNA: B1 RNA with A25G, U27G, U28C, A30U, C31G
DNA 1: CAATCTGAATTCCGGTCTCCC
DNA 2: TGGTGGCTACGACGGGATT
B13: AGUGUCA (DNA:RNA)
RNA: B1 RNA with U28G, G29U, A30C, C31A
DNA 1: CAATCTGAATTCCGGTCTCCC
DNA 2: TGGTGGCTACGACGGGATT
B14: GUGAAGC (DNA:RNA)
RNA: B2 RNA with C25G, C26U, A27G, U30G, A31C
DNA 1: CAATCTGAATTCCGGTCTCCC
DNA 2: TGGTGGCTACGACGGGATT
B15: AUACACA (DNA:RNA)
RNA: B2 RNA with C25A, C26U, A28C, U30C
DNA 1: CAATCTGAATTCCGGTCTCCC
DNA 2: TGGTGGCTACGACGGGATT
B16: CUAUACC (DNA:RNA)
RNA: B2 RNA with C26U, A28U, U30C, A31C
DNA 1: CAATCTGAATTCCGGTCTCCC
DNA 2: TGGTGGCTACGACGGGATT
B17: GGUGCAU (DNA:RNA)
RNA: B1 RNA with A25G, U28G, G29C, C31U
DNA 1: CAATCTGAATTCCGGTCTCCC
DNA 2: TGGTGGCTACGACGGGATT
B18: CAGGGAU (DNA:RNA)
RNA: B1 RNA with A25C, G26A, U27G, U28G, C31U
DNA 1: CAATCTGAATTCCGGTCTCCC
DNA 2: TGGTGGCTACGACGGGATT
B19: AUGUCGU (DNA:RNA)
RNA: B1 RNA with G26U, U27G, G29C, A30G, C31U
DNA 1: CAATCTGAATTCCGGTCTCCC
DNA 2: TGGTGGCTACGACGGGATT
B20: GGCAGCU (DNA:RNA)
RNA: B1 RNA with A25G, U27C, U28A, A30C, C31U
DNA 1: CAATCTGAATTCCGGTCTCCC
DNA 2: TGGTGGCTACGACGGGATT
B21: AAUGCGG (DNA:RNA)
RNA: B1 RNA with G26A, U28G, G29C, A30G, C31G
DNA 1: CAATCTGAATTCCGGTCTCCC
DNA 2: TGGTGGCTACGACGGGATT
B22: UUAAUGU (DNA:RNA)
RNA: B2 RNA with C25U, C26U, A29U, U30G, A31U
DNA 1: CAATCTGAATTCCGGTCTCCC
DNA 2: TGGTGGCTACGACGGGATT
B23: CAUUAAC (DNA:RNA)
RNA: B1 RNA with A25C, G26A, G29A
DNA 1: CAATCTGAATTCCGGTCTCCC
DNA 2: TGGTGGCTACGACGGGATT
B24: UUCGUUC (DNA:RNA)
RNA: B1 RNA with A25U, G26U, U27C, U28G, G29U, A30U
DNA 1: CAATCTGAATTCCGGTCTCCC
DNA 2: TGGTGGCTACGACGGGATT
B25: UCCGGCG (DNA:RNA)
RNA: B1 RNA with A25U, G26C, U27C, U28G, A30C, C31G
DNA 1: CAATCTGAATTCCGGTCTCCC
DNA 2: TGGTGGCTACGACGGGATT
B26: UGUGCAC (DNA:RNA)
RNA: B1 RNA with A25U, U28G, G29C
DNA 1: CAATCTGAATTCCGGTCTCCC
DNA 2: TGGTGGCTACGACGGGATT
B27: GCUUGGG (DNA:RNA)
RNA: B1 RNA with A25G, G26C, A30G, C31G
DNA 1: CAATCTGAATTCCGGTCTCCC
DNA 2: TGGTGGCTACGACGGGATT
B28: AAUUAUU (DNA:RNA)
RNA: B1 RNA with G26A, G29A, A30U, C31U
DNA 1: CAATCTGAATTCCGGTCTCCC
DNA 2: TGGTGGCTACGACGGGATT
B29: GGUCACG (DNA:RNA)
RNA: B1 RNA with A25G, U28C, G29A, A30C, C31G
DNA 1: CAATCTGAATTCCGGTCTCCC
DNA 2: TGGTGGCTACGACGGGATT
B30: AUAUUGG (DNA:RNA)
RNA: B1 RNA with G26U, U27A, G29U, A30G, C31G
DNA 1: CAATCTGAATTCCGGTCTCCC
DNA 2: TGGTGGCTACGACGGGATT
B31: GCAAUAG (DNA:RNA)
RNA: B2 RNA with C25G, A29U, U30A, A31G
DNA 1: CAATCTGAATTCCGGTCTCCC
DNA 2: TGGTGGCTACGACGGGATT

Each binder was assayed against T1, RBFOX1 RRM (assay: EMSA; HiTS-Eq, 1 nM pool, 10 min; buffer printed only for the single-RNA assays: 10 mM Tris pH 7.5, 150 mM NaCl, 3.4 mM EDTA, 0.001% NP-40, 30 C). Details: tags: His6 N-terminal (pET28a); label: 5' 32P.
Outline: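 Purified wild-type or mutant RbFox RRM at increasing concentrations was equilibrated with 1 nM of 5′-radiolabelled RNA carrying 7 randomized nucleotides for 10 min in 50 µL. Unbound RNA was separated by 8% native PAGE and sequenced. Relative association constants came from read-count changes of each RNA species compared with the control reaction, normalised to the cognate motif.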

| Binder | binding signal |
| --- | --- |
| B1 | 0.015 KA relative to UGCAUGU |
| B2 | 0.000528 KA relative to UGCAUGU |
| B3 | 0.00997 KA relative to UGCAUGU |
| B4 | 0.0188 KA relative to UGCAUGU |
| B5 | 0.0057 KA relative to UGCAUGU |
| B6 | 0.00296 KA relative to UGCAUGU |
| B7 | 0.0121 KA relative to UGCAUGU |
| B8 | 0.0131 KA relative to UGCAUGU |
| B9 | 0.00183 KA relative to UGCAUGU |
| B10 | 0.00365 KA relative to UGCAUGU |
| B11 | 0.00684 KA relative to UGCAUGU |
| B12 | 0.0291 KA relative to UGCAUGU |
| B13 | 0.00991 KA relative to UGCAUGU |
| B14 | 0.0118 KA relative to UGCAUGU |
| B15 | 0.000269 KA relative to UGCAUGU |
| B16 | 0.00079 KA relative to UGCAUGU |

| Binder | binding signal |
| --- | --- |
| B17 | 0.0241 KA relative to UGCAUGU |
| B18 | 0.0133 KA relative to UGCAUGU |
| B19 | 0.0142 KA relative to UGCAUGU |
| B20 | 0.0114 KA relative to UGCAUGU |
| B21 | 0.0113 KA relative to UGCAUGU |
| B22 | 0.0122 KA relative to UGCAUGU |
| B23 | 0.000395 KA relative to UGCAUGU |
| B24 | 0.0129 KA relative to UGCAUGU |
| B25 | 0.00745 KA relative to UGCAUGU |
| B26 | 0.0241 KA relative to UGCAUGU |
| B27 | 0.0124 KA relative to UGCAUGU |
| B28 | 0.00113 KA relative to UGCAUGU |
| B29 | 0.00945 KA relative to UGCAUGU |
| B30 | 0.00681 KA relative to UGCAUGU |
| B31 | 0.00829 KA relative to UGCAUGU |

Source: publication PMC9911399, “Two distinct binding modes provide the RNA-binding protein RbFox with extraordinary sequence specificity”
